Laboratory results taken from PubChem BioAssay AID938 (National Center for Advancing Translational Sciences (NCATS), 2007).
The campaign covered roughly 73,000 compounds. About 1,800 (2.5%) were called active. This list was built around the results that the source calls inconclusive (neither active nor inactive); the mix of calls is not that of the screen. Calls come from the whole dose curve; as a rule, active = well fitted activation curve with a large enough effect; inconclusive = small, poorly fitted or top-dose-only effect; inactive = no such curve, though single readings can be large or run the other way. Potencies of inconclusive entries are doubtful fits and often do not repeat.

experiment: qHTS Assay for Agonists of the Thyroid Stimulating Hormone Receptor: Activators of Intracellular cAMP Concentrations in Parental HEK 293; conditions: parental HEK293 CNG cAMP sensor, membrane potential fluorescence; activation: at 57.1 µM (top of the series) unless noted; note: nearly all actives have a fitted effect of over 55% in size; for activation: % of control where 0% means no effect
In short: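 Parental HEK 293 cells stably expressing a cAMP-gated CNG channel were loaded with membrane potential dye containing 100 uM RO 20-1724 for 60 min. Compound added for 30 min; depolarization read as fluorescence intensity at 590 nm.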
Potency is the fitted concentration of half-maximal effect; tags give direction and shape of the fitted curve.

Structure (SMILES)	activation	Potency
Cn1c(-c2ccc(CN3CCCCC3)o2)nc2ccccc21	inactive: 22.4%	–
O=c1c2ccccc2nc2ccc(NCc3ccco3)nn12	–	inconclusive: 39.8 µM [activator, single point]
COc1cc(C2CC(=O)c3c([nH]c(C(=O)OCCOC(C)C)c3C)C2)cc(OC)c1OC (stereo unspecified)	–	inconclusive: 12.6 µM [activator, partial curve, poor fit]
CCOC(=O)c1cn(-c2ccccc2)nc1-c1cccnc1	inactive: -1.77% [at 11.4 µM]	–
O=C(c1ccco1)N1CCC2(CCCN(Cc3ccncc3)C2)CC1	inactive: 14.3%	–
O=c1ccc2c(o1)/C(=C/C=C(Cl)Cl)CCC2	inactive: 10.4% [at 11.4 µM]	–
O=C(OCc1cc2ccccc2[nH]c1=O)c1ccccn1	–	inconclusive: 39.8 µM [activator, single point]
Cc1cc(N2CCN(C(c3ccccc3)c3ccccc3)CC2)n2ncnc2n1	–	inconclusive: 31.6 µM [activator, single point]
CSc1ccc(S(=O)(=O)Nc2c(C)cccc2C)cc1	–	inconclusive: 12.6 µM [activator, single point]
O=C(OCc1nc(-c2ccccc2)oc1COC(=O)c1ccco1)c1ccco1	–	inconclusive: 10 µM [activator, partial curve]
Cc1cc(=O)oc2c1ccc1oc(/C(=N/O)c3ccccc3)c(C)c12	–	inconclusive: 39.8 µM [activator, single point]
CCn1c(SCC(=O)NCCc2ccc(Cl)cc2)nnc1-c1cccs1	–	inconclusive: 15.8 µM [activator, partial curve]
Oc1cc(O)c2c(c1)O[C@H](c1ccc(O)c(O)c1)[C@H](O)C2	inconclusive: 34.9% [activator] [at 25.6 µM]	inconclusive: 31.6 µM [activator, single point]
COc1ccc(-c2cn3c4c(sc3n2)CCCC4)cc1	inactive: 13.1%	–
O=C(Nc1ccccc1NC(=O)c1ccco1)c1ccco1	inactive: 4.65%	–
COc1ccc(C(=O)CSc2nc(SC)ns2)cc1OC	–	inconclusive: 39.8 µM [activator, single point]
c1csc(CNc2ccnc(-c3ccc4c(c3)OCO4)n2)c1	–	inconclusive: 25.1 µM [activator, single point]
CCOCCOC(=O)C1=C(C)Nc2ccc(C)cc2S1	inactive: -6.1% [at 2.29 µM]	–
COc1ccc2c(c1)c(CC(=O)O)c(C)n2C(=O)c1ccc(Cl)cc1	–	inactive
O=C(NCc1ccco1)c1cc(S(=O)(=O)N2CCOCC2)ccc1Cl	–	inconclusive: 1.58 µM [activator, single point]
